Data from publication PMC4336329 (PLoS ONE, 2015).
Screen size: about 310,000 compounds; about 2,200 (0.71%) showed an effect of 50% or more. Effects have a minus sign here. Some of the results follow.

molecular target: human ether-à-go-go-related gene (hERG) potassium channel (human, UniProt Q12809); experiment: primary screen, population patch clamp on CHO cells stably expressing hERG
Sequence (Q12809 whole entry, looked up): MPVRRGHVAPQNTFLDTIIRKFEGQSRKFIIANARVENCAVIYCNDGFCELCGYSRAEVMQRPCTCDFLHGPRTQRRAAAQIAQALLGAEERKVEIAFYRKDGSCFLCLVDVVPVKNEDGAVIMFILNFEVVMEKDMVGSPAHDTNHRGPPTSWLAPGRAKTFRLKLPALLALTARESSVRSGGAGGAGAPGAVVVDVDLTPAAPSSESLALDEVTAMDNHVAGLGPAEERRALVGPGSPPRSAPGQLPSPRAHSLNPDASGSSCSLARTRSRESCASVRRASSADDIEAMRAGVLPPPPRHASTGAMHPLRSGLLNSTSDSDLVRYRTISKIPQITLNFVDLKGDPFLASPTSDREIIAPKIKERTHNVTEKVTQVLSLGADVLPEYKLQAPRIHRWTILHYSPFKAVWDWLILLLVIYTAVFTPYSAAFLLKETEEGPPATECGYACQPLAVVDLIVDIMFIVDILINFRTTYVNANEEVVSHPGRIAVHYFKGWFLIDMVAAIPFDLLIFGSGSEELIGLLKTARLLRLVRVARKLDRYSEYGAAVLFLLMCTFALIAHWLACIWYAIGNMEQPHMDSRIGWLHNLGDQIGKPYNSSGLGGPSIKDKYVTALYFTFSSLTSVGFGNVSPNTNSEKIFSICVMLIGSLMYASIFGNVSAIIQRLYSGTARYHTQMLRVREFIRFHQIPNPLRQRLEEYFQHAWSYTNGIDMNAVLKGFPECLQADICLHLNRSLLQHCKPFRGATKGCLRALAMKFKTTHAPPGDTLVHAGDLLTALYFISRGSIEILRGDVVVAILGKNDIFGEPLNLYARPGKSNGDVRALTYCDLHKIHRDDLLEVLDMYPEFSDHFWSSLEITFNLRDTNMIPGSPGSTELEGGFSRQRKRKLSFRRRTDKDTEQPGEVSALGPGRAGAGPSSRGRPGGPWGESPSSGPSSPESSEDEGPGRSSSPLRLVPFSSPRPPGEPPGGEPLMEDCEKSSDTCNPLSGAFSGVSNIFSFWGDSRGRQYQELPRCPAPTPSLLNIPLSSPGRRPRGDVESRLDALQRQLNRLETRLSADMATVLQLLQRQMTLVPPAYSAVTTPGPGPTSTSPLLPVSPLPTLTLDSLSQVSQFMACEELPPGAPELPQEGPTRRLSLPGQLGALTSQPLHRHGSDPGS

| SMILES | hERG current change (%, negative = inhibition) at 1uM [%] |
| --- | --- |
| CC(=O)c1cc(NC(=O)c2ccc([N+](=O)[O-])cc2)c(=O)oc1C | 15.6 |
| CC(Oc1ccc(Cl)cc1Cl)c1nc(-c2ccc(NC(=O)c3cccnc3)cc2)no1 (stereo not shown) | 4.81 |
| O=C(N/N=C/c1cc2c(cc1Cl)OCO2)c1cc(-c2ccccc2)n[nH]1 | 15 |
| CCOC(=O)N1CCN(C(=O)COc2ccc(Br)cc2Cl)CC1 | -0.976 |
| O=C(NCc1ccc(F)cc1)c1cccc2c1C(=O)c1ccc(Cl)cc1S2(=O)=O | 7.11 |
| O=C(Nc1ccc2snnc2c1)N1CCN(c2ccccc2)CC1 | -3.46 |
| CN(C(=O)c1ccc(Cl)c(S(=O)(=O)N2CCOCC2)c1)c1ccccc1C(=O)O | 8.24 |
| COc1ccc(NS(=O)(=O)c2cc(N)ccc2N2CCCCC2)cc1 | 7.33 |
| NC(=O)C[C@H]1NC(=O)[C@H](CCC(=O)O)NC(=O)c2cc([N+](=O)[O-])cc(I)c2NCCC[C@@H](C(N)=O)NC1=O | 13.9 |
| CCN(CC)c1ccc(N=Cc2c(O)n(-c3ccc(OC)cc3)c(=O)[nH]c2=O)cc1 | 11.4 |
| CC(=O)N1c2ccc(S(=O)(=O)N3CCCCC3)cc2CC1C(=O)NCc1ccccc1C (stereo not shown) | 10.7 |
| COc1ccc(NCc2nc3ccccc3n2CCOc2ccc(C)cc2)cc1 | 2.52 |
| Cc1csc(Nc2nc(N)c(C(=O)Nc3cc(Cl)ccc3F)o2)n1 | 6.02 |
| CCn1nc(C)c(C(=O)Nc2cc(Oc3ccc(Cl)cc3)cc([N+](=O)[O-])c2)c1C | -0.037 |
| CC(C)(C)NC(=O)CN1CCC(O)(c2ccccc2)CC1 | 14.2 |
| C=CCN=c1sc(C(=O)OC)cc(=O)n1CC=C | 15.4 |
| COC(=O)c1ccccc1NC(=O)CSc1nc2c(c(=O)[nH]1)CCC2 | 0.75 |
| CCOc1ccc(CC(=O)NCCc2cnc[nH]2)cc1 | 3.84 |
| CSc1nnc2c(n1)OC(C)N(C(=O)c1ccccc1)c1ccccc1-2 (stereo not shown) | 10.8 |
| CCOc1ccc(S(=O)(=O)N2CCC(C(=O)NCc3ccccn3)CC2)cc1C | 10.4 |
| COc1ccc(NS(=O)(=O)c2ccc3c(c2)N(C(C)=O)CCO3)cc1 | 19.5 |
| C=CCn1c2ccccc2c(=O)c2cc(C#CC3(O)CCCCC3)ccc21 | 16 |

| SMILES | hERG current change (%, negative = inhibition) at 1uM [%] |
| --- | --- |
| CC(Sc1nnc(CNC(=O)c2ccco2)n1C)C(=O)Nc1nccs1 (stereo not shown) | 12.5 |
| COc1ccc(-n2nnnc2SCC(=O)c2ccc3c(c2)OCCO3)c(OC)c1 | -1.11 |
| COc1cc2c(cc1OC)CC(=O)N(C)CC2 | 6.78 |
| COc1cc(/C=C2\NC(=O)NC2=O)cc(Br)c1OC | 12.7 |
| CN(Cc1ccccc1)C(=O)c1[nH]cnc1C(=O)Nc1ccon1 | 13.4 |
| CC(C)CC(=O)N1CCN(S(C)(=O)=O)CC1 | 11.4 |
| O=C(CCC1CCCC1)N1CCN(C(=O)c2ccco2)CC1 | -1.72 |
| CC(C)CCCC(C)CCOC(=O)CN1CCCC1 (stereo not shown) | 10.3 |
| Cc1ccc(NC(=O)C2CCN(C(=O)c3ccc(F)cc3)CC2)nc1 | 5.43 |
| COc1cccc(Nc2nc(NCCO)nc(N3CCCC3)n2)c1 | 3.49 |
| COc1cc(NS(=O)(=O)c2ccc3[nH]c(=O)oc3c2)cc(OC)c1 | 11.6 |
| CN(C)c1ccc(C(=O)OCC(=O)c2cccs2)cc1 | 9.31 |
| Cn1c(SCC(=O)NC2CCCC2)nc2c(c1=O)SCC2 | 14.1 |
| COCCCN(C(=O)C1CCC1)c1c(N)n(Cc2ccccc2)c(=O)[nH]c1=O | 2.31 |
| O=C(NC1CCCCCC1)c1cc2c(=O)n3ccccc3nc2s1 | 8.59 |
| Cc1cccc(NC(=O)CN(C)CC(=O)NC(c2ccccc2)c2ccccc2)c1C | 3.3 |
| CCC1=NN(C(=O)c2cccc([N+](=O)[O-])c2)C(O)(c2ccc(C)cc2)C1 (stereo not shown) | 19 |
| CCOC(=O)N1CCC(Nc2c(Nc3ccc(F)cc3)c(=O)c2=O)CC1 | 16.9 |
| COC(=O)COc1ccc(-c2ccccc2)cc1C=O | 8.6 |
| O=C(NCCN1CCOCC1)c1ccc2c(c1)N(Cc1c(F)cccc1Cl)C(=O)c1ccccc1S2 | 11.5 |
| O=C(Nc1ccc2oc(-c3ccncc3)nc2c1)c1ccco1 | 15.4 |
| O=C1NC(=Nc2ccccc2)S/C1=C\c1cccn1-c1ccccc1 | 12.8 |

| SMILES | hERG current change (%, negative = inhibition) at 1uM [%] |
| --- | --- |
| CC(=O)c1cccc(NC(=O)N2CCOCC2)c1 | 15.1 |
| CC1(c2nnc(-c3cccc(Cl)c3)o2)CC(c2cccc(Cl)c2)=NO1 (stereo not shown) | 11.6 |
| CCCNc1c(NC(=O)COc2ccc(Cl)cc2)c(=O)oc2ccccc12 | 0.348 |
| COc1ccc(/C(O)=C2/C(=O)C(=O)N(c3ccccn3)C2c2cccc(Cl)c2)cc1 (stereo not shown) | 12.4 |
| O=C1CCC2(C(=O)O)Sc3ccccc3N12 (stereo not shown) | 6.7 |
| COc1cc(CCN)ccc1O.Cl | 14.2 |
| CCOC(=O)c1c(NCC2CCCO2)c2ccccc2[nH]c1=O (stereo not shown) | 2.15 |
| C1CCC(n2nnnc2CN2CCCC2)CC1 | -0.0339 |
| O=C(N/N=C/c1cccc([N+](=O)[O-])c1)c1ccccc1-n1cccc1 | 7.19 |
| CCOc1ccc(NC(=S)N2CCN(S(=O)(=O)c3ccc(C)cc3)CC2)cc1 | 5.75 |
| COc1ccccc1/C=C/C(=O)Nc1cccnc1 | 16.1 |
| O=C(COC(=O)c1ccc(NS(=O)(=O)c2ccc3c(c2)OCCO3)cc1)NCC1CCCO1 (stereo not shown) | 15.6 |
| CCOc1ccccc1N1CCN(C(=S)Nc2ccc(S(=O)(=O)Nc3ncccn3)cc2)CC1 | 7.12 |
| O=C(c1ccc(Br)o1)N1CCN(c2ccc(F)cc2)CC1 | 3.15 |
| COCCOC(=O)C1=C(C)N=C2SCCC(=O)N2C1c1ccc(OC(=O)c2ccco2)cc1 (stereo not shown) | 3.59 |
| COc1ccc(NC(=O)COC(=O)CNS(=O)(=O)c2ccccc2)cc1OC | 8.86 |
| Cc1cc(C)cc(Nc2ccc([N+](=O)[O-])nc2[N+](=O)[O-])c1 | 13 |
| COc1ccc(NC2c3ncccc3C(=O)N2Cc2cccs2)cc1 (stereo not shown) | 1.95 |
| O=C(O)C1CCCCC1C(=O)Nc1cccc2ccccc12 (stereo not shown) | 10.8 |
| Cc1cc(C(=O)N/N=C/c2ccc[nH]2)no1 | 12.2 |
| CN1C(=O)NC(c2ccc(Cl)cc2)C2=C1CC(C)(C)CC2=O (stereo not shown) | 12.6 |
| CCC(=O)N1CCc2cc(S(=O)(=O)N(C)c3ccc(OC)cc3OC)ccc21 | 14 |

| SMILES | hERG current change (%, negative = inhibition) at 1uM [%] |
| --- | --- |
| O=C(Cc1ccccc1[N+](=O)[O-])NCc1ccc2c(c1)OCO2 | 4.59 |
| COc1ccc(CNC(=O)c2cccnc2)cc1 | 7.91 |
| O=C(c1ccco1)N1CCN(C(c2cccs2)c2sc3ncnn3c2O)CC1 (stereo not shown) | 9.42 |
| CC1CCN(CCNC(=S)Nc2ccc(Cl)cc2)CC1 | 0.581 |
| O=C(Nc1ccc(O)cc1C(=O)O)c1cccs1 | 9.59 |
| COc1ccc(S(=O)(=O)N2CCC(C(=O)NCCN3CCOCC3)CC2)cc1OC | 11 |
| CC1CCN(S(=O)(=O)c2ccc(NC(=O)Cn3nnc(-c4ccccc4)n3)cc2)CC1 | 8.71 |
| Cc1ccc(CNC(=O)C2CCCN(c3ncnc4c3nc3n4CCCCC3)C2)cc1 (stereo not shown) | 0.715 |
| COc1ccccc1-n1cc(-c2ccccc2)[nH]c1=S | 13.5 |
| O=C(NCCNc1ccc([N+](=O)[O-])cc1)c1cccs1 | 0.701 |
| COc1ccc(/C=N/OC(=O)c2ccc(Cl)cc2)c(Cl)c1OC | 1.72 |
| Cc1ccc(-c2csc(N3N=C(c4ccccc4)/C(=C\c4ccc(N(C)C)cc4)C3=O)n2)cc1 | 6.34 |
| COc1ccccc1NS(=O)(=O)c1cccc(NC(=O)NC2CCCCC2)c1 | 12.3 |
| CNC(=O)CN(CCc1ccccc1)S(=O)(=O)c1ccc(OC)cc1 | 10.6 |
| O=C(NC(Cc1ccccc1)C(=O)O)/C(=C/c1cccc(Br)c1)NC(=O)c1ccco1 (stereo not shown) | 10.6 |
| O=C(NCCCN1CCOCC1)c1cc2c(=O)[nH]c3ccccc3c2s1 | 10.6 |
| COc1ccc(C(CC(=O)N2CCOCC2)C(C)C)cc1 (stereo not shown) | 20.2 |
| C=CC12CN(C)[C@@H]3C4CO[C@H](C[C@H]41)[C@]1(C(=O)Nc4ccccc41)[C@@H]32 (stereo partly shown) | 11.6 |
| Cc1cccc(NS(=O)(=O)c2ccc(NC(=O)N3CCCCC3)cc2)c1 | -0.808 |
| CN(C)c1nc(N(C)C)nc(N(C#N)Cc2ccc(Cl)cc2)n1 | 9.72 |
| CCN1CCN(c2ccc(S(=O)(=O)N3CCCCC3)cc2NC(=O)c2ccc(F)cc2)CC1 | -16.7 |
| Cc1ccc(N(CC(=O)NC2CCCCC2)C(=O)CCCC(=O)Nc2ccccn2)c(C)c1 | 8.99 |
